Experimental data from article PMC4336329 (PLoS ONE, 2015).
Hit rate of the full screen: of about 310,000 compounds, about 2,200 (0.71%) showed an effect of 50% or more. Effects have a minus sign here. The list shows a part of the results. Where a SMILES comes first, the peptide text is derived from it. [ ]: non-standard residue; d: D form. The star is where a group is joined. ξ: configuration not given here. Piv = CC(C)(C)C(=O)*; ξNva = CCCC(N)C(=O)O

Molecular target: human ether-à-go-go-related gene (hERG) potassium channel (human, UniProt Q12809)
Assay: primary screen, population patch clamp on CHO cells stably expressing hERG

human ether-à-go-go-related gene (hERG) potassium channel, sequence (Q12809 whole entry, looked up): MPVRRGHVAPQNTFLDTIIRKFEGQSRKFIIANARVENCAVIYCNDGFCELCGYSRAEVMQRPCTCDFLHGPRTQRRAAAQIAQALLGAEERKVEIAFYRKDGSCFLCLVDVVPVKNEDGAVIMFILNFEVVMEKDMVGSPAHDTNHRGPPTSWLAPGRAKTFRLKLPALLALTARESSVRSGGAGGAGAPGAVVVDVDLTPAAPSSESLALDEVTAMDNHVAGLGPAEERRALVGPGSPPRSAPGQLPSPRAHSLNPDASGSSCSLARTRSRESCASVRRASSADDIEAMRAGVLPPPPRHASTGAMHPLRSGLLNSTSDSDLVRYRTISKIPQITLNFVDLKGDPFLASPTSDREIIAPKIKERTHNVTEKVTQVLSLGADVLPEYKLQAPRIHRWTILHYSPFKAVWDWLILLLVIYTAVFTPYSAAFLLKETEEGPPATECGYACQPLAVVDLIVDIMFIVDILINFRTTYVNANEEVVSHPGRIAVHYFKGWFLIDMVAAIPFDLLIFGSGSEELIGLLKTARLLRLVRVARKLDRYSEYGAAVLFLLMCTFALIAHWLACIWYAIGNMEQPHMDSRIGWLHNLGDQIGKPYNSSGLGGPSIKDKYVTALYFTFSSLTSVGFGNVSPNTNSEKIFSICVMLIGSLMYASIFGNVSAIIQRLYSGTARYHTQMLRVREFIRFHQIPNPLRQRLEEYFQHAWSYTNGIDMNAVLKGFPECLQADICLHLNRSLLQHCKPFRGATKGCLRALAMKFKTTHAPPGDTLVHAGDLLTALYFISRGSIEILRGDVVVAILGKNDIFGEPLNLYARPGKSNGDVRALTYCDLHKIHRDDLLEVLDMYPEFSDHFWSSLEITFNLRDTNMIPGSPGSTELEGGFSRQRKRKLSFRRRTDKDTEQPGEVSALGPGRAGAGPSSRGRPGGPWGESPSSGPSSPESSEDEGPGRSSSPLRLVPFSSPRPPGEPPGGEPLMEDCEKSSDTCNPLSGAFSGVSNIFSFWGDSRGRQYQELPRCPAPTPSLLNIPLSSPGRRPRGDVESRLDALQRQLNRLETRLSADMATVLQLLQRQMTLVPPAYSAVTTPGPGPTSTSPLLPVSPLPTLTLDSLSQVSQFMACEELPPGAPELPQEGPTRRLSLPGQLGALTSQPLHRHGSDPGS

SMILES | hERG current change (%, negative = inhibition) at 1uM
COCCNc1nnc(SCC(=O)NC2CCCCC2)s1 | 6.58%
CC1(C)Cc2c(C#N)c(N3CCOCC3)nc(-c3ccccc3)c2CO1 | 7.95%
CCC(C)Oc1nc2ccccc2nc1NS(=O)(=O)c1ccccc1 (stereo not shown) | 9.52%
COc1cc(C(=O)OCCCN=C2NS(=O)(=O)c3ccccc32)cc(OC)c1OC | 7.11%
CCOc1ccc(C(=O)c2ccc(OCC)c(N)c2)cc1N | 10.6%
Cn1c(/C(C#N)=C(\O)c2cccc(F)c2)nc2ccccc21 | 12.1%
CC(C)c1ccc(NC2CCCN(C(=O)CCN3CCCCO3)C2)cc1 (stereo not shown) | 4.34%
NNC(=O)c1cc(C23CC4CC(CC(C4)C2)C3)nc2ccccc12 | 14.5%
COc1ccc(NC2C=CS(=O)(=O)C2)cc1 (stereo not shown) | 13.9%
COc1ccccc1NC(=O)/C(C#N)=C/c1cccnc1 | 8.26%
COc1ccc(N(CC(=O)NC2CCCCC2)C(=O)c2ccc(C)s2)cc1OC | 17.2%
CC(=O)c1ccc(NC(=O)CSc2nc(=O)n3cccc(C)c3n2)cc1 | -3.31%
C#CCOCCOCCOCCNc1nc(N2CCN(C(=O)[C@H]([C@@H](C)CC)n3cc(CCC[NH+]=C(N)N)nn3)CC2)nc(N2CCN(C(=O)[C@H](CCCC[NH3+])n3cc(CCC(=O)O)nn3)CC2)n1.[Cl-] | 11.9%
CCCC12CN3CCN(CC(C3)/C1=N\NC(=O)c1ccncc1)C2 | 16.2%
Cc1cc(=O)oc2cc(OCCSCCN3CCCC3)ccc12 | 11.6%
O=C(OCC(=O)N1CCN(C(=O)c2ccco2)CC1)c1cc(=O)c2ccccc2o1 | 10%
O=C(Cc1nn[nH]n1)Nc1cc(Cl)cc(Cl)c1 | 9.4%
CC(=O)N(CCc1ccccc1)Cc1cc2ccc(C)c(C)c2[nH]c1=O | 7.79%
COCCN(C(=O)COC(=O)C1COc2ccccc2O1)c1c(N)n(Cc2ccccc2)c(=O)[nH]c1=O (stereo not shown) | 11.1%
S=C(NCCCN1CCOCC1)Nc1ccc(N2CCOCC2)cc1 | 13.1%
O=S1(=O)C=CC(Nc2ccccc2)C1 (stereo not shown) | -44.7%
CCOC(=O)c1ccc(COC(=O)c2nonc2N)cc1 | 4.67%

SMILES | hERG current change (%, negative = inhibition) at 1uM
O=C(Oc1cccc(F)c1)c1ccc2c(=O)n3c(nc2c1)CCC3 | 2.01%
Cc1ccc(C)c(S(=O)(=O)N2CCN(C(=O)Cc3ccccc3)CC2)c1 | -6.34%
CCn1c(-c2nn(C)c(C)c2Cl)n[nH]c1=S | 16.4%
O=C(O)c1cccc(NC(=O)c2cn(-c3ccccc3)nc2-c2ccc([N+](=O)[O-])cc2)c1 | 13.6%
Cc1c(C(=O)OC(C)C)sc(NC(=O)c2cccnc2)c1C#N | 4.23%
O=C(NCc1cccs1)c1cnn2cccnc12 | -3.52%
CC1(C)CC(=O)C2=C(C1)OC(c1ccc(O)cc1)C(C#N)=C2N (stereo not shown) | 6.42%
CC(NC(=O)c1ccc(S(=O)(=O)N(C)C)cc1)c1ccc(-n2ccnc2)cc1 (stereo not shown) | -40.5%
CC(=O)C1=C(c2ccccc2)NC(=O)NC1c1ccccc1OCC(=O)NCc1ccccc1 (stereo not shown) | 12.5%
CC1=CC(c2ccc(Cl)cc2)n2nc(NC(=O)CCC(=O)O)nc2N1 (stereo not shown) | 14.7%
O=C/C(=C\Nc1ccccn1)c1nc2cc(Cl)ccc2o1 | 19.2%
COC(=O)c1nc2cc3c(cc2c(C)c1C(=O)OC)OCO3 | 14.1%
C/C(CC(=O)Nc1ccc2c(c1)OCCO2)=N\NC(=O)Cc1ccccc1 | 15.3%
C=CCNc1nc(N2CCCCC2)c(C#N)c2c1CN(Cc1ccccc1)CC2 | 9.15%
COc1ccccc1C(C)NS(=O)(=O)c1ccc(Cl)nc1 (stereo not shown) | 1.47%
COC(=O)C1=C(c2cc3ccccc3s2)C[C@@H]2CC[C@H]1N2C(=O)NC1CC1 | 3.81%
CC(CCc1ccco1)NC(=O)Cn1ncc2c(=O)oc3ccccc3c21 (stereo not shown) | 1.54%
Cc1cccc(C(=O)Nc2cccc3cccnc23)c1 | 17.4%
CC1CCN(C(=O)c2ccc(NC(=O)c3ccccc3)cc2)CC1 | 9.95%
Cc1ccc2cccc(OC(=O)N3CCCC3)c2n1 | 12.8%
Cc1ccc2nc(NC3=NC(CC(=O)O)C(=O)N3)nc(C)c2c1 (stereo not shown) | 6.92%
O=C(NCC(c1cccnc1)N1CCOCC1)c1cccs1 (stereo not shown) | 15.6%

SMILES | hERG current change (%, negative = inhibition) at 1uM
CCOC(=O)C1CCN(S(=O)(=O)c2c(C)n(C)c(=O)n(C)c2=O)CC1 | 5.57%
N/C(=N\OC(=O)CCc1ccccc1)c1cccnc1 | 14%
CCOC(=O)CSc1ncc(-c2cccc(Cl)c2)cn1 | 3.31%
O=[N+]([O-])c1cc2c(cc1/C=N/n1c(-c3ccccn3)n[nH]c1=S)OCO2 | 6.43%
COc1cccc(Oc2nccc(N(C)C)c2C#N)c1 | 16.7%
O=C(NCc1ccccn1)C(=O)NCC1OCCN1S(=O)(=O)c1ccc(Br)cc1 (stereo not shown) | 11.2%
CCn1cc(C(=O)NCc2ccccc2Cl)cn1 | 16.3%
N#CC1=C(N)S[C@@H](C(=O)c2ccc(F)cc2)[C@@H]1c1cccs1 | 7.8%
c1ccc2c(c1)OCC(CNc1ncnc3sccc13)O2 (stereo not shown) | 6.61%
Cc1ccc(NC(=O)c2ccco2)c(NC(=O)c2ccccc2)c1 | 2.72%
CCC(C)Nc1nc2c(c(=O)[nH]c(=O)n2C)n1CCC(C)C (stereo not shown) | 9.56%
CCCCN(C(=O)c1ccc(COc2ccccc2)o1)c1c(N)n(CC(C)C)c(=O)[nH]c1=O | 15.1%
CN1CCc2c(sc3c2C(=O)NC(c2ccc4c(c2)OCO4)N3)C1 (stereo not shown) | -2.85%
CCC(C)Sc1nc2c(cnn2-c2ccc(F)cc2)c(=O)[nH]1 (stereo not shown) | 6.66%
CCOC(=O)N1CCN(C(=O)c2c[nH]c3ccc(S(=O)(=O)N(C)c4cccc(C)c4)cc3c2=O)CC1 | 21.8%
C=CCn1c(SCC(=O)N2CCN(c3ccc(F)cc3)CC2)nnc1-c1cccs1 | -52.4%
CCOC(=O)C1CCCCN1Cc1ccc(OC)c(OC)c1OC (stereo not shown) | -14.4%
O=C(/C=C/c1ccc(NC(=O)c2ccccc2-c2ccccc2C(=O)O)cc1)c1ccccc1 | 14.4%
O=c1c2c(-c3ccccc3)csc2ncn1/N=C/c1c2ccccc2cc2ccccc12 | 0.841%
CC(C)Cn1cnc2c1c(=O)n(CC(=O)NN)c(=O)n2Cc1ccccc1 | 13.9%
Cc1ccc(S(=O)(=O)NCc2ccc(C(=O)NC3CCCCC3)cc2)cc1 | 11.5%
O=c1[nH]c(=S)[nH]c(O)c1/C=C1/C=c2ccccc2=N1 | 16.8%

SMILES | hERG current change (%, negative = inhibition) at 1uM
CC(C)C[C@H](NC(=O)c1nc[nH]c1C(=O)N1CCc2ccccc2C1)C(=O)OCc1ccccc1 | 6.56%
COc1ccccc1C(=O)Nc1nnc(-c2ccc(F)cc2)s1 | 2.59%
COc1ccc(S(=O)(=O)NC(C)C(=O)NCc2cccnc2)cc1Cl (stereo not shown) | 10.3%
C/C(=N\NC(=S)NCc1ccccc1)C1CCCCC1 | 12.5%
O=C(NNC(=O)C1CCCCC1)c1ccncc1 | 9.67%
OCCC1CN(Cc2cccn2-c2nccs2)CCN1CCc1ccccc1 (stereo not shown) | -57.1%
O=C(O)CCc1n[nH]c(=S)[nH]c1=O | 5.95%
COc1cc(CNc2ncc(-c3ccc(Cl)cc3)n2C)cc(OC)c1OC.O=C(O)C(=O)O | -16%
COc1ccc(NC(=O)CCCn2cc([N+](=O)[O-])cn2)cc1 | 1.91%
COc1ccc(NC(=O)CC2COc3ccccc3O2)c(OC)c1 (stereo not shown) | 0.807%
COc1ccccc1S(=O)(=O)Cc1ccc(C(=O)NCCCN2CCN(c3ccc(F)cc3)CC2)o1 | -68.3%
COc1ccc(Nc2nnc(SCC(=O)Nc3ccc4[nH]c(=O)[nH]c4c3)s2)cc1 | 5.92%
Cc1cccc(NS(=O)(=O)c2ccc(C(=O)NCC(c3ccccc3)N(C)C)cc2)c1C (stereo not shown) | 10.5%
CCCC(NC(=O)CNC(=O)C(C)(C)C)C(=O)O (stereo not drawn) (Piv-Gly-[ξNva]-OH) | 1.25%
COC(=O)[C@]1(CC(C)C)N[C@H](c2ccc(-c3cccc(Cl)c3)cc2)[C@@H]2C(=O)N(C)C(=O)[C@@H]21.O=C(O)C(F)(F)F | 10.6%
COc1cc(C2NC(=S)NC3=C2CCc2ccccc23)cc(OC)c1OC (stereo not shown) | 11.5%
CCC(C)(C)n1nnnc1C(c1ccccc1F)N1CCC(C(N)=O)CC1 (stereo not shown) | 10.4%
CC1Cc2ccccc2N1C(=O)Cn1cnc2ccccc2c1=O (stereo not shown) | 19.3%
Cc1ccc(OCCn2c(NC(=O)c3ccco3)nc3ccccc32)cc1 | -0.342%
CN(Cc1ccccc1)C(=S)NC(=O)c1ccccc1 | -3.02%
O=C(COC(=O)Cc1cn2ccsc2n1)NC12CC3CC(CC(C3)C1)C2 | 9.85%
COC(=O)C1=C(C(=O)OC)[C@@H]2Nc3ccccc3[C@@]23C[C@@H](C(=O)OC)N(C(C)=O)C3=N1 | 10.4%
